Counter-ions that a name gives are not always drawn. Whole data set: some 2,800 compounds, median “cell viability relative to vehicle” near 1.1, cut for the lowest 2% near 0.19. The list shows a part of the results.

The test system of the test is NCI-H2228 parental. Kind of test: cell viability relative to vehicle (fraction of vehicle); NCI-H2228 is an ALK-positive lung cancer line and DTP means drug-tolerant persister; higher = less growth inhibition. Conditions: 100 nM; treatment time 6 days. A digest of the protocol: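 Parental NCI-H2228 cells and drug-tolerant persister cells (made with 1000 nM of a targeted drug for 13 days) were seeded in 384-well plates. The next day, the 3114-agent TargetMol anti-cancer compound library was added at 100 nM, with DMSO as vehicle. After 6 days, ATP was read with the CellTiter-Glo 3D Cell Viability Assay. Each value is cell viability relative to vehicle-treated cells.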
As to `Cn1c(CCCCCCC(=O)NO)nc2cc(N(CCCl)CCCl)ccc21` [Minomustine], the cell viability turned out to be 1.12.
As for `O=P1(N(CCCl)CCCl)NCCCO1` (configuration not stated) [Cyclophosphamide monohydrate], the figure is 1.1.
In the case of `COc1ccc(/C=C2\CCCN=C2c2cccnc2)c(OC)c1` [GTS 21 dihydrochloride] it was 1.13; in that of `COP(=S)(OC)Oc1ccc(Sc2ccc(OP(=S)(OC)OC)cc2)cc1` [Temephos], 1.03; in that of `C[C@@]1(C(=O)O)CC[C@]2(C)CC[C@]3(C)C4=CC(=O)c5c(cc(O)c(O)c5C=O)[C@]4(C)CC[C@@]3(C)[C@@H]2C1` [Demethylzeylasteral], 1.07.
Take `CN1CCN(c2cccc3[nH]c(=O)oc23)CC1` [Pardoprunox hydrochloride]: the cell viability worked out at 1.2.
For the molecule `CN1CCC(C(=O)c2cccc(NC(=O)c3c(F)cc(F)cc3F)n2)CC1` [Lasmiditan], the cell viability was determined as 0.964.
As for `Cc1sc2c(c1C)C(c1ccc(Cl)cc1)=N[C@@H](CC(=O)OC(C)(C)C)c1nnc(C)n1-2`, the figure is 0.928; as for `C[C@@H]1CC[C@]2(NC1)O[C@H]1C[C@H]3[C@@H]4CC=C5C[C@@H](O)CC[C@]5(C)[C@H]4CC[C@]3(C)[C@H]1[C@@H]2C` [Solasodine], 0.97; as for `Cn1c(COP(=O)(NCCBr)NCCBr)cnc1[N+](=O)[O-]` [Evofosfamide], 1.15.
In the case of `COc1ccc(OC)c(C(O)C(C)N)c1` (configuration not stated) [Methoxamine hydrochloride] it was 1.08.
As for `Cc1c(N[C@@H](c2nnc(-c3ccc(C#N)cc3)o2)[C@H](C)O)ccc(C#N)c1Cl` [Testolone], the figure is 1.2; as for `OC(c1ccccc1)(c1ccccc1)C1CCNCC1` [Ataractan], 1.15.
In the case of `C[N+]1(C)CCCC(OC(=O)C(O)(c2ccccc2)c2ccccc2)C1` (configuration not stated) [Mepenzolate Bromide], the cell viability was 0.893.
As for `COc1cc(OC)c(OC)cc1C=O` [Asarylaldehyde], the figure is 1.22; as for `CCC1(C)CC(=O)NC(=O)C1` [Bemegrid], 1.32; as for `C/C(O)=C(\C#N)C(=O)Nc1cc(Br)ccc1Br`, 1.08.
For `OC1C[C@H]2CC[C@@H](C1)N2` (some centres not stated) [Nortropine], the cell viability came out at 0.954.
As for `COc1cc([C@@H]2c3cc4c(cc3[C@@H](O)[C@H]3COC(=O)[C@H]23)OCO4)cc(OC)c1O` [4'-Demethylepipodophyllotoxin], the figure is 0.402.
As for `Cc1ccccc1-n1c(Cn2ncc3c(N)ncnc32)nc2cccc(C)c2c1=O`, the figure is 1.03; as for `CN(C)C(=O)Oc1ccc[n+](C)c1` [Mestinon], 1.23; as for `O=c1[nH]c2ccccc2n1C1CCN(CCCC(c2ccc(F)cc2)c2ccc(F)cc2)CC1` [Pimozide], 1.07.
As for `CC(C)NCC(O)c1ccccc1Cl` (configuration not stated) [Clorprenaline hydrochloride], the cell viability is 0.941.
As for `CC1=C2C[C@H]3[C@@H](CC=C4C[C@@H](O)CC[C@@]43C)[C@@H]2CC[C@]12O[C@@H]1C[C@H](C)CN[C@H]1[C@H]2C` [Cyclopamine], the figure is 1.17; as for `CCCCCCCCC(=O)NCc1ccc(O)c(OC)c1` [Nonivamide], 0.917.
In the case of `C[C@@H]1C(=O)O[C@H]2[C@H](O)[C@@]34O[C@@H]5OC(=O)[C@H](O)[C@@]56[C@H](C(C)(C)C)[C@H](O)C(OC3=O)[C@]64[C@@]12O` (some centres not stated) [Ginkgolide C] it was 1.08; in that of `CN[C@@H](Cc1c[nH]c2ccccc12)C(=O)O` [Abrine], 1.08.
As for `NCCCNCCSP(=O)(O)O` [Amifostine], the figure is 0.986; as for `COC1=C[C@]23CCCN2CCc2cc4c(cc2[C@@H]3[C@@H]1O)OCO4` [Cephalotaxine], 1.13.
In the case of `c1ccc2c(c1)[nH]c1cnccc12` [Norharmane], the cell viability turned out to be 0.982.
In the case of `N#CC(C#N)=Cc1ccc([N+](=O)[O-])c(O)c1` it was 1.07.
For the molecule `C[C@]12CCC(=O)C(O)=C1CC[C@@H]1[C@@H]2CC[C@]2(C)C(=O)CC[C@@H]12` [Formestane], the cell viability was determined as 0.959.
With `CN1[C@@H]2CC[C@H]1C[C@@H](OC(=O)C(CO)c1ccccc1)C2` (some centres not stated) [Atropine], the cell viability stood at 1.18.
Take `CCOc1ccccc1-n1c(C(C)N2CCN(C(=O)COc3ccc(Cl)cc3)CC2)nc2ccccc2c1=O` (configuration not stated) [Erastin]: the cell viability was determined as 1.09.
In the case of `CCC1=C[C@H]2CN3CCc4c([nH]c5ccccc45)[C@](C(=O)OC)(C2)[C@H]13` [Catharanthine] it was 1.06.
For `CNCC(O)c1ccc(O)cc1` (configuration not stated) [Synephrine HCl], the cell viability came out at 0.912.
As to `CNCC(O)c1ccc(O)cc1` (configuration not stated) [Synephrine], the cell viability came out at 1.14.
As for `Cc1sc2c(c1C)C(c1ccc(Cl)cc1)=N[C@@H](CC(=O)Nc1ccc(O)cc1)c1nnc(C)n1-2` [Birabresib], the figure is 0.922; as for `COc1ccc2[nH]cc(C3=CCNCC3)c2c1`, 1.1.
In the case of `CN(C)C(=O)Oc1cccc([N+](C)(C)C)c1` [Neostigmine bromide] it was 1.06; in that of `CN(C)C(=O)Oc1cccc([N+](C)(C)C)c1` [Hodostin], 0.965; in that of `CN1[C@H]2C[C@H](OC(=O)[C@H](CO)c3ccccc3)C[C@@H]1[C@@H](O)C2` [Anisodamine], 1.1.
For the molecule `CCN(CC)CCOC(=O)C(O)(c1ccccc1)c1ccccc1` [Benactyzine hydrochloride], the cell viability is 1.1.
In the case of `CNC(=O)Oc1ccc2c(c1)[C@]1(C)CCN(C)[C@@H]1N2C` [Physostigmine Salicylate] it was 1.09; in that of `Nc1ncnc2c1ccn2[C@@H]1O[C@H](CO)[C@@H](O)[C@H]1O` [Tubercidin], 0.219.
On to `COc1ccc(C(CN(C)C)C2(O)CCCCC2)cc1` (configuration not stated) [Venlafaxine hydrochloride], for which the cell viability is 1.14.
As for `Cc1cccc(C)c1NC(=O)CN1CCCC1=O` [Nefiracetam], the cell viability was found to be 1.05.
In the case of `CCCC[N+]1(C)[C@@H]2C[C@@H](OC(=O)[C@H](CO)c3ccccc3)C[C@H]1[C@@H]1O[C@@H]12` (some centres not stated) [Scopolamine butylbromide] it was 1.07.
For `S=C=NCc1ccccc1` [Benzyl isothiocyanate], the cell viability worked out at 1.13.
`Cn1cc(C2=C(c3cn(C4CCN(Cc5ccccn5)CC4)c4ccccc34)C(=O)NC2=O)c2ccccc21` [Enzastaurin]: the cell viability amounted to 1.13.
As for `NC(=O)c1cc(N2CC2)c([N+](=O)[O-])cc1[N+](=O)[O-]` [Tretazicar], the figure is 0.88; as for `C=CCN1CC[C@]23c4c5ccc(O)c4O[C@H]2C(=O)CC[C@@]3(O)[C@H]1C5` [Naloxone hydrochloride], 0.947.

For the origin of these results see the supplement of paper PMC10600219.
